Results published in the supplement of paper PMC3334620.
Whole data set: some 33,000 sequences, median “E-score (-0.5 to 0.5)” near -0.035, cut for the highest 2% near 0.35. Some of the results follow.

Target: T1, Pdr3 (UniProt P33200)
T1 sequence: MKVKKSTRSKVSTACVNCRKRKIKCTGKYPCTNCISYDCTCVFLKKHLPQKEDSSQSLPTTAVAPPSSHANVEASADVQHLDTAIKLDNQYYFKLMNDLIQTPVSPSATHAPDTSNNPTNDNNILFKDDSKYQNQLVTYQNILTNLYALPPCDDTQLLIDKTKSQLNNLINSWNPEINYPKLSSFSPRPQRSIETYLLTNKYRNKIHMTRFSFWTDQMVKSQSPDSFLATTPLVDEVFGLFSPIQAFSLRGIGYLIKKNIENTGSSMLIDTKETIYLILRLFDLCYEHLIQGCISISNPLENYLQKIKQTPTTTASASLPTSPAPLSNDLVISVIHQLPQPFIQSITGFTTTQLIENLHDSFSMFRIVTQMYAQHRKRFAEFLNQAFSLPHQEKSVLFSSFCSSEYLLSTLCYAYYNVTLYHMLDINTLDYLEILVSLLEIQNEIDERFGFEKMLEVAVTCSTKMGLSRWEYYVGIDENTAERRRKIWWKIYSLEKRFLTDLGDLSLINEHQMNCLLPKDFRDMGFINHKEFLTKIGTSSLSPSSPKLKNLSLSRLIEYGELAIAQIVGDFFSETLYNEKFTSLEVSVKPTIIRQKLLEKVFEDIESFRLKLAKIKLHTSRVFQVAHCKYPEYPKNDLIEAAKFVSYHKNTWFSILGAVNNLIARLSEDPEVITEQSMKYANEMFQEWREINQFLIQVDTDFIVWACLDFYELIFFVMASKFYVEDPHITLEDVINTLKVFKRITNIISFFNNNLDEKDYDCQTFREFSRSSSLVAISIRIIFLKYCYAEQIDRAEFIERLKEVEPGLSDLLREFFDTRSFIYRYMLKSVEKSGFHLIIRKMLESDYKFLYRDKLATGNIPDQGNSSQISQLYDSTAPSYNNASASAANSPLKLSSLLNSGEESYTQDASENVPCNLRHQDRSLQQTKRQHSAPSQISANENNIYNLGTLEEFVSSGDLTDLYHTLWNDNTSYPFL
Assay: PBM E-score (8-mer binding enrichment) (E-score (-0.5 to 0.5)); higher = stronger / more preferred TF binding; most listed sequences are background and not binding sites
Conditions: protein concentration: 200 nM; construct: GST-full length
Method: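 Universal 'all 10-mer' protein binding microarrays (Agilent AMADID 015681) probed with GST-tagged S. cerevisiae TFs (full-length or DBD) made by in vitro transcription/translation (PURExpress), about 100-200 nM. Bound TF was detected with fluorescent anti-GST. Each ungapped 8-mer (which stands for itself and its reverse complement) is scored by the PBM enrichment score (E-score), a modified Wilcoxon-Mann-Whitney statistic from -0.5 to +0.5, computed with the Universal PBM Analysis Suite. Scale: above 0.35 generally sequence-specific binding.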

Sequence	PBM E-score
TAGCTAAA	-0.228
AGGGATGG	0.112
AGTTTTGC	-0.0368
CGGACTAA	0.268
CACACCAG	-0.198
ACGACGCA	-0.00033
AATCCCCA	0.0592
CTGCACAG	-0.139
AGATTTTA	-0.204
TATTGGGA	-0.105
GGAGGACC	0.0976
CACCGATG	-0.185
CCCGATTA	0.148
AGGACTGC	-0.377
AGACTCAG	-0.0747
GGTACTAC	-0.00175
CTTCGGGC	-0.0458
AGTAGCCC	-0.0951
CGCAGTTC	0.119
CCACTAAG	0.00787
AGTGGCAT	-0.103
GCGAAGCA	0.172
CCATGAAA	0.00658
CTAGCCAC	-0.331
GCGTTGTA	-0.0598

Sequence	PBM E-score
CCGGAGAC	0.37
CAGAGGAC	-0.132
ACTAGTAT	0.0316
ATAGAACC	-0.0736
ACAGACCA	0.0819
ACGGATCT	0.271
GTATTCGA	-0.0737
GTGGGCGA	-0.133
GGAACTCA	0.257
TCATGGAA	0.0232
AGTAGCAC	-0.104
AAGGATAG	-0.0728
CTGACCGC	0.166
TCATAGGA	-0.156
ACATGGGT	-0.0665
ACAAGGGT	-0.0359
CGCGGATA	0.412
GGTAGTCA	-0.186
ATCACCAG	-0.0765
ACTGAAAA	-0.0582
CTTCTCTC	-0.032
ACGCCTCG	0.0615
CTTAGCTA	-0.199
AGCTACGC	-0.107
TAAAGAAA	-0.0608

Sequence	PBM E-score
ACGTTAGG	-0.263
ACGAACGC	0.147
AAACAGCC	-0.114
GCTACGAA	-0.194
ATGATTGG	0.0449
ACTCATCC	0.0641
GACCCACC	-0.0584
GATACCCA	-0.0647
AACGCTCC	-0.158
CAATCTGG	-0.0845
CACATTAA	-0.168
TAGATCAA	-0.14
AAAGTGAT	-0.0819
AAAGCGTA	-0.0399
GCACGATA	-0.0499
ACTAAAGC	-0.128
AGCCTGAC	-0.259
GCATGTAA	-0.216
ATCAGGCA	-0.0749
ACCTCTCT	-0.247
ACCATCCA	-0.0478
CCATCAAG	-0.157
GGACTCCA	0.0677
AGAAAACG	-0.0597
CCCCATGA	-0.132

Sequence	PBM E-score
CATACCTC	-0.0216
CCTGGGCA	-0.232
ATTAAGCG	-0.0117
CGTCCGGA	0.433
ACGTCTAT	-0.168
CACGTATA	-0.0998
GGCAAACC	-0.147
AGCGTTCA	-0.283
TAACCTCA	-0.156
CATCGGAC	0.143
AAATCTGA	-0.0704
AGCTATGA	-0.121
GCGGTGAA	0.0612
ACTGTTCA	-0.00555
TCGCTAAA	-0.126
AGGTCCAT	-0.0122
CACTCACA	0.0916
AGGCCGCA	-0.0397
ATTATATA	-0.00217
CCGACACA	0.0855
CGATATCA	0.135
CACCGTCC	0.125
AATCGCCG	0.142
GCCGGTGA	0.123
AGATAAAA	0.0553

Sequence	PBM E-score
AATTTCGT	-0.113
CGCTTGAG	-0.0477
AAGCGACA	0.0716
AAGGTAGT	0.0778
AACGCAGC	0.0532
AGTAACGA	-0.104
GACACATA	-0.00152
AGGAACTC	0.0544
AATTACTA	0.0014
CATATTAC	0.0911
AATTGCTA	-0.0798
CTCCTCCC	-0.0826
ACCCCCGT	-0.123
CCTTACGC	-0.0975
ATGAGTCG	-0.131
GACAGCTA	-0.188
ATTCTGGG	0.033
AAACCAAG	-0.169
CATACTCC	0.18
AGTTGCTG	-0.00673
AAGATACG	0.0392
CGCATAAG	-0.0423
GCTGAAAC	0.0574
AATGCTGG	0.00689
AGACTCGC	-0.134

Sequence	PBM E-score
ACGGGGCA	0.05
ATGCACAG	-0.0979
AAAACAGG	-0.332
CAGTCAAC	-0.134
CAGTTTTC	0.112
AGCCTGAG	-0.389
AGACAACC	0.0741
AATGTCAA	-0.113
GGTCGGAA	0.4
AGGACGTA	-0.0667
ACAGGTTC	-0.0996
CGATACCG	0.177
AAGTAGGA	-0.355
CCCATCGA	0.0121
GTAAGTGA	0.085
CGATATGA	0.102
ACTTGCTA	-0.163
CATTAAGA	-0.303
AGCAGCCC	-0.0573
ACATAAAG	-0.124
GGGCTCTA	-0.0512
TATGCAGA	-0.0675
ACGAATCT	-0.138
GCCACAAA	-0.0524
CAGACCGA	0.0747

Sequence	PBM E-score
CTTGATCA	0.0126
CGATTCAA	-0.112
GCTCTGAA	-0.126
ATCCGGGA	0.313
AGTGTCCG	0.235
ATAGTCAC	-0.0342
AGGATATC	-0.0388
AAGGTCCC	-0.0527
ACGGTAAC	0.224
ACCAGGTC	-0.0207
AGACGAAC	-0.0242
CTCTACAC	-0.15
CATGTGGA	-0.0419
ATCACACC	0.085
GGGCTCAC	-0.17
AGGGTAAC	-0.14
CGATGAGA	0.087
ATTAAATA	0.213
ATACAGGC	-0.0916
CCTGCAAC	-0.25
ATTATCAG	-0.0591
AGATGTAC	-0.285
